Data published in PMC4336329 (PLoS ONE, 2015).
Among all 310,000 compounds or so, about 14,000 (4.5%) showed an effect of 50% or more. The effect is printed as a negative number. The list shows a part of the results.

Target: human ether-à-go-go-related gene (hERG) potassium channel (human, UniProt Q12809)
Test: primary screen, population patch clamp on CHO cells stably expressing hERG
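Note: peak tail current of the secondary pulse compared with the same well before compound.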

human ether-à-go-go-related gene (hERG) potassium channel, sequence (Q12809 whole entry, looked up): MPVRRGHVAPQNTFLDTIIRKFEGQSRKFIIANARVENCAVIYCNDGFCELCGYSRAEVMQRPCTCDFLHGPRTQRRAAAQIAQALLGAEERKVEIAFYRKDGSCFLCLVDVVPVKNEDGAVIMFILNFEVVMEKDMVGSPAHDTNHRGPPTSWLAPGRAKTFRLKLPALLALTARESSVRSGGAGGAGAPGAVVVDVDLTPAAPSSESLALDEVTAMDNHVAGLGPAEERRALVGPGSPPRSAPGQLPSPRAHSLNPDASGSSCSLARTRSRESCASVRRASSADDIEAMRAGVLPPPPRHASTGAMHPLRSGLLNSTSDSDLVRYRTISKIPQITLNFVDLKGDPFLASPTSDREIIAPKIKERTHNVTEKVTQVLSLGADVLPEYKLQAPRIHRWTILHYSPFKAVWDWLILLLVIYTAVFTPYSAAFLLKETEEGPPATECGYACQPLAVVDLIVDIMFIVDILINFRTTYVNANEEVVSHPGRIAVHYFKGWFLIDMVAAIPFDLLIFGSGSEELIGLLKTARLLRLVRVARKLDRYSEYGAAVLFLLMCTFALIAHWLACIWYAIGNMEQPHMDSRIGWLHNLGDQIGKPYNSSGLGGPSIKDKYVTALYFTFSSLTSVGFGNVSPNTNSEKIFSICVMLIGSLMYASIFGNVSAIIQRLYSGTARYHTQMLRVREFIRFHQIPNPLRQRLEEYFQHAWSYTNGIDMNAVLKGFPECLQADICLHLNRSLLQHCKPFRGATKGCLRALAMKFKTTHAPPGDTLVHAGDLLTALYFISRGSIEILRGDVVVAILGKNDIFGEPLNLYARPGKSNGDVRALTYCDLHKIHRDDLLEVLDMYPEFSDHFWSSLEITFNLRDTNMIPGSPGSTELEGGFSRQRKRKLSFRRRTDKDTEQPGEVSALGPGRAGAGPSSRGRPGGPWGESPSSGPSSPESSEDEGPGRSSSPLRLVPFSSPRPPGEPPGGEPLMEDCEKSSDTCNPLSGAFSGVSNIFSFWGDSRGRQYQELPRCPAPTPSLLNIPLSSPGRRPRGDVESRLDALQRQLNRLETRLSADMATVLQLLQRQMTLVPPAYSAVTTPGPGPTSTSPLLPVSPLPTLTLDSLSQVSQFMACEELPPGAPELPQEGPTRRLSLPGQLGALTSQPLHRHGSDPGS

Row | Compound | hERG current change (%, negative = inhibition) at 10uM
1 | O=CN1CCN(C(=S)Nc2ccc(OC(F)F)cc2)CC1 | -9.52%
2 | COc1cc(OC)c(C2C(C(=O)O)c3ccccc3C(=O)N2C)cc1OC (stereo not drawn) | 10.3%
3 | CSc1ccc(Cl)c(C(=O)Nc2ccc(N3CCOCC3)cc2)c1 | -1.67%
4 | COc1ccc(CNCCc2c[nH]c3ccccc23)c(OC)c1C.O=C(O)C(=O)O | -60.3%
5 | c1c(C2CCCCC2)n[nH]c1CN1CCCCC1 | -53.9%
6 | O=C1/C(=C/c2cccnc2)Cc2ccc(Cl)cc21 | 2.02%
7 | Cc1ccc(C(C[N+](=O)[O-])Sc2ccc(N)cc2)cc1 (stereo not drawn) | 9.31%
8 | O=C(Nc1ccc(Br)cc1)N1CCc2ccccc2C1 | 2.91%
9 | Cc1ccc(S(=O)(=O)c2nc(C)c3c(n2)CCC3)cc1 | 3.61%
10 | OCC(O)CN(c1ccccc1)c1ccccc1 (stereo not drawn) | 2.58%
11 | O=C(NCCc1ccco1)C(=O)NCC1CCCN1S(=O)(=O)c1ccccc1 (stereo not drawn) | -33.5%
12 | COc1cccc(/C=C/C(=C2/C(=O)N(c3ccccc3)N=C2C)c2ccccc2)c1OC | -20.5%
13 | Cc1ccccc1CNC(=O)CCCn1ncn2c(cc3occc32)c1=O | -14.7%
14 | O=C(Nc1nnc(-c2ccccc2F)s1)C1CCCO1 (stereo not drawn) | 0.46%
15 | Cl.c1ccc(COC(CN2CCCCCC2)CN2CCCCCC2)cc1 | -63.6%
16 | COCCn1cnc2c1c(=O)n(Cc1ccccc1C#N)c(=O)n2Cc1ccccc1 | -11.4%
17 | Cc1cccc(C(=O)OC(C)CN2CCOCC2)c1.Cl (stereo not drawn) | -0.467%
18 | CN(CCC#N)CC(=O)Nc1ccc(NC(=O)CN(C)CCC#N)cc1 | -4.53%
19 | Cc1ccccc1NC(=O)CSc1ccc2nnc(-c3ccccn3)n2n1 | -23.8%

Row | Compound | hERG current change (%, negative = inhibition) at 10uM
20 | Cc1nc(C(=O)Nc2ccc(Cl)cc2)sc1C1(C)CC(c2ccccc2)=NO1 (stereo not drawn) | 4.4%
21 | CC(=O)Nc1ccc(NC(=O)CCc2nc3sc4c(c3c(=O)[nH]2)CCCC4)cc1 | 3.55%
22 | O=C(Nc1cccnc1)Nc1ccccc1Cl | -0.946%
23 | Cc1ccc(OCc2cc(C(=O)NC3CCCCC3)no2)cn1 | 12.8%
24 | O=C(O)c1ccccc1C(=O)Nc1ccc(S(=O)(=O)N2CCCC2)cc1 | 22.3%
25 | O=C(COc1ccccc1Cc1ccccc1)Nc1cccnc1 | -26.4%
26 | CC1=C(C(=O)OCc2ccccc2)C(c2cccc([N+](=O)[O-])c2)NC(=O)N1CCCCCC(=O)O (stereo not drawn) | 5.86%
27 | CC1Cc2ccccc2N1C(=O)COC(=O)/C=C/c1cccc(F)c1 (stereo not drawn) | 1.23%
28 | CCc1cc(S(N)(=O)=O)cc(CC)c1NC(C)=O | 7.59%
29 | CCOC(=O)CSc1nc2sc3c(c2c(=O)n1-c1ccc(C)cc1)CCN(C)C3 | -22.4%
30 | N#Cc1nc(-c2cccs2)oc1NCCCN1CCOCC1 | -9.06%
31 | Cc1ccc(-c2nnc(N3CCN(CCO)CC3)c3ccccc23)cc1 | -58.4%
32 | O=C(c1ccccc1F)N1CCN(S(=O)(=O)c2ccc(S(=O)(=O)N3CCCCCC3)cc2)CC1 | 0.847%
33 | COc1cc(C(=O)OC2CCN(C)CC2)cc(OC)c1OC.Cl | -5.62%
34 | Cc1ccccc1-n1nnc2c(=O)oc3ccccc3c21 | 8.96%
35 | CN1CCN(CC(=O)NN(Cc2ccccc2)c2ccccc2)CC1.O=C(O)C(=O)O | -14.2%
36 | C/C(=N\NC(=O)c1cc(C)nc2ccccc12)c1ccco1 | 4.8%
37 | Cc1onc(-c2c(F)cccc2Cl)c1C(=O)NC(C)c1ccccc1 (stereo not drawn) | -4.83%
38 | Cc1ccc(Nc2nc3ccccc3c(=O)s2)cc1 | 17.9%

Row | Compound | hERG current change (%, negative = inhibition) at 10uM
39 | COc1cc(NC(=S)N2c3ccccc3CC2C)cc(OC)c1 (stereo not drawn) | 9.02%
40 | CC1=CC(=C2N=C(c3ccccc3)OC2=O)C=C(C)O1 | -13.5%
41 | CCCC[N+]12CCC(CC1)C(C(=O)c1cccs1)C2.[Br-] (stereo not drawn) | 1.45%
42 | Cc1cc(C)n(CCN(C)Cc2nc(Cc3ccccc3F)no2)n1 | 4.71%
43 | CCCCCCN(C(=O)CCCCCN1C(=O)NC(c2ccc(-c3ccccc3)cc2)C(C(=O)OCc2ccccc2)=C1C)C(C(=O)NCCCC)c1ccc(OCC(=O)OC)c(C(=O)OC)c1 (stereo not drawn) | 21.9%
44 | CCOc1ccc(N(CC(=O)NCc2ccc(Cl)cc2)S(=O)(=O)c2ccccc2)cc1 | 20.4%
45 | COc1ccccc1N1CC(C)(C)C(=O)N(C(=O)c2ccc(Cl)cc2)C1=S | 2.76%
46 | Cc1ccc(C)c(NC(=O)c2cc(S(=O)(=O)N3CCOCC3)cn2C)c1 | -1.16%
47 | O=S(=O)(NCCc1csc(-c2ccc(C(F)(F)F)cc2)n1)c1ccc2c(c1)OCCO2 | 3.21%
48 | CCC(C(=O)O)N1C(=O)C2CCCCC2C1=O (stereo not drawn) | 2.86%
49 | Fc1c(CSC(=S)N2CCOCC2)cccc1CSC(=S)N1CCOCC1 | 12.9%
50 | CCS(=O)(=O)Nc1ccc2[nH]c(=O)[nH]c2c1 | 42.4%
51 | Cc1ccc(S(=O)(=O)N2CCC(N3CCC(C)CC3)CC2)cc1 | -29.1%
52 | Cc1ccccc1C(=O)N1CCC(n2nccc2NC(=O)C2CC2)CC1 | 10.3%
53 | O=C(Cn1nc(C(=O)O)c2ccccc2c1=O)c1cc(F)ccc1F | 22.5%
54 | O=C(CNC(=O)c1ccccc1Cl)N/N=C/c1ccc2c(c1)OCO2 | 8.33%
55 | Cc1cc(N2CCCCC2)c(F)cc1[N+](=O)[O-] | -6.63%
56 | O=C(NC1CCCCC1)c1cc(Cl)ccc1[N+](=O)[O-] | -4.63%
57 | Cc1ccc(C)c(NC(=S)c2ccc3ccccc3n2)c1 | -6.88%
